The values that follow come from US7423058B2, “Inhibitors of hepatitis C virus NS3 protease” (Schering Corporation, priority 2004, dated 2008).

Usually Ki stands for the equilibrium dissociation constant of an inhibitor or competing ligand from its target.

In the assay the target is Recombinant heterodimeric HCV NS3/NS4A protease (strain 1a) (Hepatitis C virus genotype 1a, UniProt P27958). As to the kind of experiment: Spectrophotometric assay for HCV protease inhibitory activity (chromogenic ester substrates). Type of assay: biochemical. Particulars: Table 1: Ketones; read-out: Ki* Range.
Regarding `C=CCNC(=O)C(=O)C(CCC)NC(=O)[C@@H]1[C@@H]2[C@H](CN1C(=O)[C@@H](NC(=O)N[C@H](C(=O)C1CC1)C(C)C)C(C)(C)C)C2(C)C` (some centres unmarked) [compound 4103], the Ki was less than 75 nM. Turning to `CC(C)[C@H](NC(=O)N[C@H](C(=O)N1C[C@H]2[C@@H]([C@H]1C(=O)NC(CC1CC1)C(=O)C(N)=O)C2(C)C)C(C)(C)C)C(=O)c1ccccc1OCc1ccccc1` (some centres unmarked) [compound 4104], the inhibitory constant (Ki) is less than 75 nM. The same measure for `C=CCNC(=O)C(=O)[C@H](CCC)NC(=O)[C@@H]1[C@@H]2[C@H](CN1C(=O)[C@@H](NC(=O)N[C@H](C(=O)C1CC1)C(C)C)C(C)(C)C)C2(Cl)Cl` [compound 4105]: less than 75 nM.

Turning to `C=CCNC(=O)C(=O)C(CCC)NC(=O)[C@@H]1[C@@H]2[C@H](CN1C(=O)[C@@H](NC(=O)N[C@H](C(=O)c1cccs1)C(C)C)C(C)(C)C)C2(C)C` (some centres unmarked) [compound 4106], the Ki is less than 75 nM.

Take `CC(C)C(=O)[C@@H](NC(=O)N[C@H](C(=O)N1C[C@H]2[C@@H]([C@H]1C(=O)NC(CC1CC1)C(=O)C(N)=O)C2(C)C)C(C)(C)C)C(C)(C)C` (some centres unmarked) [compound 4108]: the Ki was less than 75 nM. As for `CC(C)[C@H](NC(=O)N[C@H](C(=O)N1C[C@H]2[C@@H]([C@H]1C(=O)NC(CCC(F)(F)F)C(=O)C(N)=O)C2(C)C)C(C)(C)C)C(=O)c1ccccc1` (some centres unmarked) [compound 4109], the figure is less than 75 nM; as for `C=CCNC(=O)C(=O)C(CC1CC1)NC(=O)[C@@H]1[C@@H]2[C@H](CN1C(=O)[C@@H](NC(=O)N[C@H](C(=O)C1CC1)C1CCCCC1)C(C)(C)C)C2(C)C` (some centres unmarked) [compound 4111], less than 75 nM. For `CC(C)(C)[C@H](NC(=O)NC1(CC(=O)C2CC2)CCCCC1)C(=O)N1C[C@H]2[C@@H]([C@H]1C(=O)NC(CC1CC1)C(=O)C(N)=O)C2(C)C` (some centres unmarked) [compound 4112], the inhibition constant Ki is less than 75 nM. As for `Cc1cccc(C(=O)[C@@H](NC(=O)N[C@H](C(=O)N2C[C@H]3[C@@H]([C@H]2C(=O)NC(CC2CC2)C(=O)C(N)=O)C3(C)C)C(C)(C)C)C(C)C)n1` (some centres unmarked) [compound 4113], the figure is less than 75 nM; as for `C=CCNC(=O)C(=O)C(CC1CC1)NC(=O)[C@@H]1[C@@H]2[C@H](CN1C(=O)[C@@H](NC(=O)NC1(CC(=O)C(C)(C)C)CCCCC1)C(C)(C)C)C2(C)C` (some centres unmarked) [compound 4115], less than 75 nM.

As for `C=CCNC(=O)C(=O)C(CCC)NC(=O)[C@@H]1[C@@H]2[C@H](CN1C(=O)[C@@H](NC(=O)N[C@H](C(=O)c1nccs1)C(C)C)C(C)(C)C)C2(C)C` (some centres unmarked) [compound 4117], the Ki is less than 75 nM. Turning to `CCCC(NC(=O)[C@@H]1[C@@H]2[C@H](CN1C(=O)[C@@H](NC(=O)N[C@H](C(=O)c1ccccc1)C(C)C)C(C)(C)C)C2(C)C)C(=O)C(N)=O` (some centres unmarked) [compound 4119], the Ki was less than 75 nM. As for `CC(C)[C@H](NC(=O)N[C@H](C(=O)N1C[C@H]2[C@@H]([C@H]1C(=O)NC(CC1CC1(F)F)C(=O)C(N)=O)C2(C)C)C(C)(C)C)C(=O)c1ccccc1` (some centres unmarked) [compound 4120], the figure is less than 75 nM; as for `CC(C)[C@H](NC(=O)N[C@H](C(=O)N1C[C@H]2[C@@H]([C@H]1C(=O)NC(CC1CC1)C(=O)C(N)=O)C2(C)C)C(C)(C)C)C(=O)c1ccc(OCc2ccccc2)cc1` (some centres unmarked) [compound 4121], less than 75 nM. The same measure for `C=CCNC(=O)C(=O)C(CCC)NC(=O)[C@@H]1[C@@H]2[C@H](CN1C(=O)[C@@H](NC(=O)N[C@H](C(=O)c1ccc(N(C)C)cc1)C(C)C)C(C)(C)C)C2(C)C` (some centres unmarked) [compound 4122]: less than 75 nM; for `C=CCNC(=O)C(=O)C(CCC)NC(=O)[C@@H]1[C@@H]2[C@H](CN1C(=O)[C@@H](NC(=O)N[C@H](C(=O)C1CC1)C(C)C)C1Cc3ccccc3C1)C2(C)C` (some centres unmarked) [compound 4123]: less than 75 nM; for `C=CCNC(=O)C(=O)C(CCC)NC(=O)[C@@H]1[C@@H]2[C@H](CN1C(=O)[C@@H](NC(=O)N[C@H](C(C)=O)C1CCCCC1)C(C)(C)C)C2(C)C` (some centres unmarked) [compound 4124]: less than 75 nM. The same measure for `C=CCNC(=O)C(=O)C(CCC)NC(=O)[C@@H]1[C@@H]2[C@H](CN1C(=O)[C@@H](NC(=O)N[C@H](C(=O)C(C)C)C1CCCCC1)C(C)(C)C)C2(C)C` (some centres unmarked) [compound 4125]: less than 75 nM.

For the molecule `CC(C)(C)[C@H](NC(=O)NC1(CC(=O)c2ccccc2)CCCCC1)C(=O)N1C[C@H]2[C@@H]([C@H]1C(=O)NC(CC1CCC1)C(=O)C(N)=O)C2(C)C` (some centres unmarked) [compound 4126], the inhibitory constant (Ki) was less than 75 nM. The same measure for `CC1(C(=O)[C@@H](NC(=O)N[C@H](C(=O)N2C[C@H]3[C@@H]([C@H]2C(=O)NC(CC2CCC2)C(=O)C(N)=O)C3(C)C)C(C)(C)C)C2CCCCC2)CC1` (some centres unmarked) [compound 4127]: less than 75 nM. Consider `CC(C)[C@H](NC(=O)N[C@H](C(=O)N1C[C@H]2[C@@H]([C@H]1C(=O)NC(CC1CC1)C(=O)C(N)=O)C2(C)C)C(C)(C)C)C(=O)c1ccc(S(C)(=O)=O)cc1` (some centres unmarked) [compound 4128], for which the Ki was less than 75 nM. In the case of `C=CCNC(=O)C(=O)C(CCC(F)(F)F)NC(=O)[C@@H]1[C@@H]2[C@H](CN1C(=O)[C@@H](NC(=O)N[C@H](C(=O)C1CC1)C1CCCCC1)C(C)(C)C)C2(C)C` (some centres unmarked) [compound 4129], the Ki was less than 75 nM. As for `CC(C)[C@H](NC(=O)N[C@H](C(=O)N1C[C@H]2[C@@H]([C@H]1C(=O)NC(CC1CC1)C(=O)C(N)=O)C2(C)C)C(C)(C)C)C(=O)c1ccc(C(F)(F)F)cc1` (some centres unmarked) [compound 4130], the figure is less than 75 nM. As for `CCCC(NC(=O)[C@@H]1[C@@H]2[C@H](CN1C(=O)[C@@H](NC(=O)N[C@H](C(=O)C1CC1)C1CCCCC1)C(C)(C)C)C2(C)C)C(=O)C(=O)NC` (some centres unmarked) [compound 4131], the figure is less than 75 nM; as for `CCCNC(=O)C(=O)C(CCC(F)(F)F)NC(=O)[C@@H]1[C@@H]2[C@H](CN1C(=O)[C@@H](NC(=O)N[C@H](C(=O)C1CC1)C(C)C)C(C)(C)C)C2(C)C` (some centres unmarked) [compound 4133], less than 75 nM. As to `C=CCNC(=O)C(=O)C(CCC)NC(=O)[C@@H]1[C@@H]2[C@H](CN1C(=O)[C@@H](NC(=O)N[C@H](C(=O)c1cccc(OC)n1)C(C)C)C(C)(C)C)C2(C)C` (some centres unmarked) [compound 4134], the inhibitory constant (Ki) is less than 75 nM. As for `C=CCNC(=O)C(=O)C(CC1CC1)NC(=O)[C@@H]1[C@@H]2[C@H](CN1C(=O)[C@@H](NC(=O)N[C@H](C(=O)C1CC1)C(C)C)C(C)(C)C)C2(C)C` (some centres unmarked) [compound 4135], the figure is less than 75 nM; as for `CC(C)[C@H](NC(=O)N[C@H](C(=O)N1C[C@H]2[C@@H]([C@H]1C(=O)NC(CC1CC1)C(=O)C(N)=O)C2(C)C)C(C)(C)C)C(=O)c1ccccc1N(C)C` (some centres unmarked) [compound 4136], less than 75 nM. On to `C=CCNC(=O)C(=O)C(CCC)NC(=O)[C@@H]1[C@@H]2[C@H](CN1C(=O)[C@@H](NC(=O)N[C@H](C(=O)C(C)(C)C)C(C)C)C(C)(C)C)C2(C)C` (some centres unmarked) [compound 4137], for which the Ki is less than 75 nM. The same measure for `C=CCNC(=O)C(=O)C(CCC)NC(=O)[C@@H]1[C@@H]2[C@H](CN1C(=O)[C@@H](NC(=O)N[C@H](C(=O)C1CC1)C(C)(C)C)C(C)(C)C)C2(C)C` (some centres unmarked) [compound 4138]: less than 75 nM; for `C=CCNC(=O)C(=O)C(CCCC)NC(=O)[C@@H]1[C@@H]2[C@H](CN1C(=O)[C@@H](NC(=O)N[C@H](C(=O)C1CC1)C1CCCCC1)C(C)(C)C)C2(C)C` (some centres unmarked) [compound 4139]: less than 75 nM; for `C=CCNC(=O)C(=O)C(CCC)NC(=O)[C@@H]1[C@@H]2[C@H](CN1C(=O)[C@@H](NC(=O)N[C@H](C(=O)c1ccc(N(C)C)cc1)C1CCCCC1)C(C)(C)C)C2(C)C` (some centres unmarked) [compound 4140]: less than 75 nM. As for `C=CCNC(=O)C(=O)C(CCC)NC(=O)[C@@H]1[C@@H]2[C@H](CN1C(=O)[C@@H](NC(=O)NC(C(=O)c1ccccc1)C(C)(C)C)C(C)(C)C)C2(C)C` (some centres unmarked) [compound 4141], the figure is less than 75 nM. `CC(C)[C@@H](CC(=O)C(C)(C)C)NC(=O)N[C@H](C(=O)N1C[C@H]2[C@@H]([C@H]1C(=O)NC(CC1CC1)C(=O)C(N)=O)C2(C)C)C(C)(C)C` (some centres unmarked) [compound 4143]: the Ki was less than 75 nM. `C=CCNC(=O)C(=O)C(CCC(F)(F)F)NC(=O)[C@@H]1[C@@H]2[C@H](CN1C(=O)[C@@H](NC(=O)N[C@H](C(=O)C1CC1)C1CCCCC1)C1CCCCC1)C2(C)C` (some centres unmarked) [compound 4144]: the Ki is less than 75 nM. As for `C=CCNC(=O)C(=O)C(CCC)NC(=O)[C@@H]1[C@@H]2[C@H](CN1C(=O)[C@@H](NC(=O)N[C@H](C(=O)c1nc(C)cs1)C(C)C)C(C)(C)C)C2(C)C` (some centres unmarked) [compound 4145], the figure is less than 75 nM; as for `C=CCNC(=O)C(=O)C(CCC)NC(=O)[C@@H]1[C@@H]2[C@H](CN1C(=O)[C@@H](NC(=O)N[C@H](C(=O)C1CCC1)C(C)C)C(C)(C)C)C2(C)C` (some centres unmarked) [compound 4146], less than 75 nM; as for `CC(C)(C)[C@H](NC(=O)N[C@H](C(=O)N1C[C@H]2[C@@H]([C@H]1C(=O)NC(CC1CC1)C(=O)C(N)=O)C2(C)C)C(C)(C)C)C(=O)c1nccs1` (some centres unmarked) [compound 4148], less than 75 nM.

Consider `C=CCNC(=O)C(=O)C(CCCC)NC(=O)[C@@H]1[C@@H]2[C@H](CN1C(=O)[C@@H](NC(=O)N[C@H](C(=O)C1CC1)C(C)C)C(C)(C)C)C2(C)C` (some centres unmarked) [compound 4149], for which the Ki is less than 75 nM. For the molecule `CNC(=O)C(=O)C(CCC(F)(F)F)NC(=O)[C@@H]1[C@@H]2[C@H](CN1C(=O)[C@@H](NC(=O)N[C@H](C(=O)C1CC1)C(C)C)C(C)(C)C)C2(C)C` (some centres unmarked) [compound 4150], the Ki is less than 75 nM. Take `C=CCNC(=O)C(=O)C(CCC)NC(=O)[C@@H]1[C@H]2CC(C)(C)O[C@H]2CN1C(=O)[C@@H](NC(=O)N[C@H](C(=O)c1ccccc1)C(C)C)C(C)(C)C` (some centres unmarked) [compound 4151]: the Ki is less than 75 nM. The same measure for `CNC(=O)C(=O)C(CC1CC1)NC(=O)[C@@H]1[C@@H]2[C@H](CN1C(=O)[C@@H](NC(=O)N[C@H](C(=O)c1ccccc1)C(C)C)C(C)(C)C)C2(C)C` (some centres unmarked) [compound 4152]: less than 75 nM. Regarding `C=CCNC(=O)C(=O)C(CC1CC1)NC(=O)[C@@H]1[C@@H]2[C@H](CN1C(=O)[C@@H](NC(=O)N[C@H](C(=O)c1ccccc1)C(C)C)C(C)(C)C)C2(C)C` (some centres unmarked) [compound 4153], the Ki is less than 75 nM. As for `CCC(CC)[C@H](NC(=O)N[C@H](C(=O)c1ccccc1)C(C)C)C(=O)N1C[C@H]2[C@@H]([C@H]1C(=O)NC(CC1CC1)C(=O)C(N)=O)C2(C)C` (some centres unmarked) [compound 4154], the figure is less than 75 nM.
